Among all 350,000 compounds or so, about 9,900 (2.8%) were called active. Inconclusive means that the source gave no clear call. Such entries were picked first, then a sample of the others. The call rests on the fitted dose curve; in most records, active means well fitted activation curve with a large enough effect; inconclusive means small, poorly fitted or top-dose-only effect; inactive means no such curve, though single readings can be large or run the other way. No potency is given beside an inconclusive call; the fits are too rough.
Test: A quantitative high throughput screen for small molecules that induce DNA re-replication in MCF 10a normal breast cells. Further: nearly all actives have a fitted effect of over 50% in size. On activity, positive = re-replication: % of control where 0% means no effect.
Details: MCF 10A DNA re-replication, Hoechst nuclear intensity, 48 h; activity, positive = re-replication: at 46.1 µM (top of the series)
Potency means the concentration at half of the fitted maximal effect; tags describe the fitted curve by direction and shape.

SMILES | Potency | activity, positive = re-replication
Cc1cccc(N(Cc2ccccc2)C(=O)CCl)c1 | inconclusive [activator, single point] | 
O=C(CSc1ncn[nH]1)N1N=C2/C(=C/c3ccco3)CCCC2C1c1ccco1 (stereo not given) |  | inactive: 8.79%
COc1cccc(-c2nc(N3CCCCC3C)c3ccccc3n2)c1O (stereo not given) | inconclusive [activator, single point] | 
Cc1ccc(C2(C(F)(F)F)NC(=O)N3N=C4CCCCCN4C3=C2C#N)cc1 (stereo not given) |  | inactive: 1.74%
CCOC(=O)N1CCN(c2c(NCCN3CCN(Cc4ccccc4)CC3)c(=O)c2=O)CC1 |  | inactive: 10.5%
Cc1ccc(S(=O)(=O)CCSC(=N)N)cc1 | active: 18.4 µM | 
O=C(NCc1cccs1)C1CCN(S(=O)(=O)c2cccc3nsnc23)CC1 | inconclusive [activator, single point] | 
COc1ccccc1Nc1nnc(SCc2cc(=O)n3ccsc3n2)s1 | inconclusive [activator, partial curve, poor fit] | 
CCC(C)c1ccc(NC(=S)NCc2ccccc2OC)cc1 (stereo not given) | active: 18.4 µM | 
O=C(CSc1c2c(nc3cc(Cl)ccc13)CCCC2)NCCN1CCOCC1 | inconclusive [activator, single point] | 
Cc1noc(C)c1S(=O)(=O)N(CCc1ccccc1)Cc1ccccc1 | inconclusive [activator, single point] | 
COc1cccc(N2CCN(C(=O)c3cn(Cc4ccccc4)nc3-c3cccnc3)CC2)c1 | active: 5.17 µM | 
CCOc1ccc2nc(NCCNC(=O)Nc3ccccc3)c(C#N)cc2c1 | inconclusive [activator, partial curve, poor fit] | 
COc1cc2c(cc1OC)CN(C(=O)/C=C/c1cccc([N+](=O)[O-])c1)CC2 | inconclusive [activator, single point] | 
CCCCCCOC(=O)Cc1c(C)nc(N)[nH]c1=O | inconclusive [activator, single point] | 
CCc1cccc(NC(=O)c2cccc(S(=O)(=O)N3CCN(C)CC3)c2)c1 | inconclusive [activator, partial curve, poor fit] | 
CC(=O)c1ccc(-n2nncc2C(C)(C)C)cc1 |  | inactive: 5.51%
COC(=O)c1[nH]c2ccc(Br)cc2c1NC(=O)CN1CCN(C2CCCCC2)CC1 | inconclusive [activator, partial curve] | 

SMILES | Potency | activity, positive = re-replication
Cc1cc(-c2ccccc2)nc(Oc2ccc(C(C)(C)C)cc2)c1S(C)(=O)=O | inconclusive [activator, partial curve, poor fit] | 
CCOC(=O)c1nnc(-c2ccccc2)nc1NCc1ccc(Cl)cc1 | inconclusive [activator, partial curve, poor fit] | 
Cc1ccc(S(=O)(=O)N2CCN(C(=O)c3ccc(OCc4c(C)noc4C)cc3)CC2)cc1 |  | inactive: -31.2%
CN(C(=O)c1ccco1)c1nc(-c2ccc(Cl)cc2)cs1 |  | inactive: -1.37%
Oc1csc(Cc2nc(-c3ccc4ccccc4c3)cs2)n1 | inconclusive [activator, partial curve, poor fit] | 
O=C(COC(=O)C1CC1)Nc1ccc(S(=O)(=O)N2CCOCC2)cc1 |  | inactive: 6.32%
CN1C(=O)C(C)(C)c2cc(S(=O)(=O)N3CCCC(C(=O)NCc4ccccc4Cl)C3)ccc21 (stereo not given) |  | inactive: -0.498%
COc1cc(NC(=O)C/C(C)=N/NC(=O)C2CCCCC2)c(OC)cc1Cl |  | inactive: -12.5%
O=C(/C=C/c1ccccc1[N+](=O)[O-])Nc1cc(S(=O)(=O)N2CCOCC2)ccc1N1CCOCC1 | inconclusive [activator, partial curve, poor fit] | 
O=S(=O)(NCCC1=CCCCC1)c1c(Cl)cccc1Cl | inconclusive [activator, partial curve, poor fit] | 
CC(Oc1ccccc1Cl)C(=O)Nc1ccc(S(=O)(=O)N2CCOCC2)cc1 (stereo not given) | inconclusive [activator, single point] | 
CCN(CC)c1ccc2c(c1)oc(=O)c1c(Cl)cc(=O)oc12 | inconclusive [activator, single point] | 
NNC(=O)c1ccc(Cn2cc(Br)c(N)n2)cc1 |  | inactive: -0.651%
CCCn1c(SCC(=O)NCc2ccco2)nnc1C(C)C | inconclusive [activator, partial curve, poor fit] | 
Nc1nc(CSc2ncn[nH]2)nc(Nc2ccc(F)cc2)n1 |  | inactive: 10.3%
CCCCNC(=O)C1(NC(=O)Nc2ccc(C)cc2)CCCCC1 | inconclusive [activator, single point] | 
C[C@@H](C[C@@H](O)[C@H](O)C(C)(C)O)[C@@H]1CC[C@]2(C)C3=CC[C@H]4C(C)(C)C(=O)CC[C@]4(C)[C@H]3CC[C@@]12C | inconclusive [activator, full curve] | 

Source: PubChem BioAssay AID624296 (National Center for Advancing Translational Sciences (NCATS), 2012)
